Laboratory results: publication PMC4336329 (PLoS ONE, 2015)
The campaign covered roughly 310,000 compounds. About 14,000 (4.5%) showed an effect of 50% or more. The effect is printed as a negative number. The list shows a part of the results.

Biological target: human ether-à-go-go-related gene (hERG) potassium channel (human, UniProt Q12809)
Assay: primary screen, population patch clamp on CHO cells stably expressing hERG
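Note: peak tail current of the secondary pulse compared with the same well before compound.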

Sequence of human ether-à-go-go-related gene (hERG) potassium channel (Q12809 whole entry, looked up): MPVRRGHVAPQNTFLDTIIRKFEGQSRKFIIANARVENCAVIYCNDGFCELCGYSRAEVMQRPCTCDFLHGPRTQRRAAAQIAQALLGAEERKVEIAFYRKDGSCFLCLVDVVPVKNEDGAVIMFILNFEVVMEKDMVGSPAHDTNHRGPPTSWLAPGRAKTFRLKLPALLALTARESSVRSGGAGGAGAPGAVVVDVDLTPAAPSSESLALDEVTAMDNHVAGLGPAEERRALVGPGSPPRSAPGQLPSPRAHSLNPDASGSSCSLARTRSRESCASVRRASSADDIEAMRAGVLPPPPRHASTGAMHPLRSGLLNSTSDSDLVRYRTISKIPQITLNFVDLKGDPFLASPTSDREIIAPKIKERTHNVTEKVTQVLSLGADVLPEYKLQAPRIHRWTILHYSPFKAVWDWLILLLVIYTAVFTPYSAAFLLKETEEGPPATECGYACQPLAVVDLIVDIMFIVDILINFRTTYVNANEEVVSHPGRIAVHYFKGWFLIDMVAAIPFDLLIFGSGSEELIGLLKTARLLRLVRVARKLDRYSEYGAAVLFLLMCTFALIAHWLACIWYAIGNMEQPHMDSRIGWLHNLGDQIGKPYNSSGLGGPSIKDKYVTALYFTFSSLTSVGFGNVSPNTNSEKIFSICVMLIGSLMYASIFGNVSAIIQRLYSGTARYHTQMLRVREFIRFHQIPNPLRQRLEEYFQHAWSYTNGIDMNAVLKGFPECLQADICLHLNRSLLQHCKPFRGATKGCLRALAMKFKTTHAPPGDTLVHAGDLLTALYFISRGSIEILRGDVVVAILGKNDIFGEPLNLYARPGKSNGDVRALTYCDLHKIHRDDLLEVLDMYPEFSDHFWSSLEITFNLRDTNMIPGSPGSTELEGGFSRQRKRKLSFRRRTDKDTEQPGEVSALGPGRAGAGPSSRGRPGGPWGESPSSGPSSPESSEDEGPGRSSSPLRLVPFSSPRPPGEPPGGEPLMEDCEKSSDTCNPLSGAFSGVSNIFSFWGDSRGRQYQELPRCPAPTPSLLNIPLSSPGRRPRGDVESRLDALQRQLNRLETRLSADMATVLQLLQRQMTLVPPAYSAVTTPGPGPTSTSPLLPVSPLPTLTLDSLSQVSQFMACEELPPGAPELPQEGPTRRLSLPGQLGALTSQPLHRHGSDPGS

Row | SMILES | hERG current change (%, negative = inhibition) at 10uM [%]
1 | Cn1c(=O)cc(-c2ccccc2)c2ccccc21 | -20.2
2 | S=C1NC(c2cccs2)=CC(c2ccc(Br)cc2)N1 (stereo not drawn) | 2.84
3 | CNC(=O)OCc1cccc(COC(=O)NC)n1.Cl | 27.2
4 | Cc1c(-c2cccc(Cl)c2)nc2ccccc2c1C(=O)OCC(=O)Nc1ccc2c(c1)OCO2 | 4.27
5 | CCNc1cc(N2CCN(C)CC2)ccc1[N+](=O)[O-] | -7.35
6 | Cc1ccc(S(=O)(=O)Cc2ccc(C(=O)N3CCN(c4cc(C)ccc4C)CC3)o2)cc1 | -18.7
7 | CCOc1ccc(Cc2nn[nH]n2)cc1 | 9.6
8 | CCn1c(=O)c(=O)[nH]c2c(=O)oc3ccc(S(=O)(=O)Nc4ccc(OC)cc4)cc3c21 | 6.59
9 | CNCC(=O)c1ccccc1.Cl | 0.121
10 | O=C(NC1CC2CCCC(C1)N2C(=O)Nc1ccc(Cl)c(C(F)(F)F)c1)C1CC1 (stereo not drawn) | 12.9
11 | O=c1nc2ccccc2c2n1CC(CN1CCN(C(c3ccccc3)c3ccccc3)CC1)N2 (stereo not drawn) | -81.4
12 | N#CC(c1ccccc1)c1ccc2c(C(F)(F)F)cc(C(F)(F)F)nc2n1 (stereo not drawn) | 16.2
13 | CC(C)Cc1nc(Cl)c(C#N)c2c1CCC2 | 3.14
14 | Cc1ccc(OCC(=O)Nc2ccc3c(c2)C(=O)NC3=O)cc1 | 7.54
15 | CCOc1cc(/C=N/Nc2ccc(C(=O)O)cc2)ccc1OC(=O)c1ccccc1C | 17.3
16 | Cc1cc(C(=O)NNC(=O)c2ccc(Cl)cc2)no1 | 2.2
17 | CCc1ccccc1NC(=O)c1cc(-c2cccc(O)c2)on1 | 12.7
18 | COCCn1c(SCc2ccc(C)cc2)nc2c1c(=O)[nH]c(=O)n2C | 1.22
19 | O=C1c2ccccc2C(Nc2ccc(F)cc2F)N1CCN1CCOCC1 (stereo not drawn) | -0.0362
20 | Cc1cccc2sc(N(CCCN(C)C)C(=O)c3ccc(S(=O)(=O)N4CCc5ccccc5C4)cc3)nc12.Cl | 13.9
21 | CCC(Oc1cc(Cl)ccc1Cl)C(=O)N1CCC2(CC1)OCCO2 (stereo not drawn) | 4.7
22 | CCN1C(=O)[C@H]2[C@@H](c3ccc(C)cc3)N3C(=O)N(c4cccc(F)c4)C(=O)[C@@]3(C)[C@H]2C1=O | 3.13
23 | Cc1c(O)c2cccnc2[nH]c1=O | 16

Row | SMILES | hERG current change (%, negative = inhibition) at 10uM [%]
24 | Cc1cccc(CN2CCC(C(N)=O)CC2)c1 | 9.85
25 | Cc1ccc(N=Cc2sccc2C)cc1C | 9.89
26 | Cc1csc(NC(=O)c2ccc(N3CCCC3=O)cc2)n1 | 17.9
27 | O=C(NC1CC1)c1ccc(-c2nc3ccccc3s2)s1 | 10.7
28 | COc1ccc(CN2CCN(S(=O)(=O)c3ccc(C)cc3)CC2)cc1OC | -0.531
29 | COc1ccc(NC(=S)Nc2ccc(C)c(S(=O)(=O)N3CCCCC3)c2)cc1 | -18.2
30 | CCCCCOC(=O)C1=C(C)Nc2ncnn2C1c1cccs1 (stereo not drawn) | 3.88
31 | O=[N+]([O-])c1cccnc1Oc1ccc(F)cc1 | 1.14
32 | O=C(Nc1ccc(S(=O)(=O)N2CCCC2)cc1)c1cccnc1Cl | -19.3
33 | O=C(O)c1ccc(NS(=O)(=O)c2ccc3c(c2)OCCCO3)cc1 | 4.23
34 | CCCC(=O)N1CCN(c2ccc(NC(=O)c3cc4ccccc4o3)cc2)CC1 | -13.4
35 | CSc1ccc(CN(C)C(=O)CCNS(=O)(=O)c2ccc(C)c(C)c2)cc1 | -21.3
36 | Cc1cc(Cl)c(S(=O)(=O)N2CCN(c3ccc(F)cc3)CC2)cc1OCC(N)=O | 9.9
37 | Cc1ccc2cc3cc(C(=O)N4CCCCCC4)oc3nc2c1 | -5.96
38 | CC(NC(=O)C(=S)N1CCN(C)CC1)c1ccccc1 (stereo not drawn) | 10.9
39 | O=C(CN1C(=O)NC2(CCCCCC2)C1=O)c1ccc(OC(F)F)cc1OC(F)F | -35
40 | COc1cc(CNC2CCCCC2)c(Br)cc1OC1CCCC1 | -10.5
41 | Cc1ccnc(SCC(=O)c2cccs2)n1 | 19.5
42 | Cc1ccc(S(=O)(=O)c2nc(S(C)(=O)=O)sc2N(C)C)cc1 | 7.31
43 | COc1ccc(C(c2nnnn2Cc2cccs2)N2CCC(C(N)=O)CC2)c(OC)c1 (stereo not drawn) | -8.49
44 | CCc1c(O)nc(SCC(N)=O)n(-c2ccccc2F)c1=O | 7.56
45 | CCC(Cc1ccccc1)NC(=O)C1CC1 (stereo not drawn) | 15.3
